According to patent US7754852B2, “Natriuretic polypeptides” (Mayo Foundation for Medical Education and Research, priority 2007, dated 2010):
Not every detail of the peptide structures is certain; ends, links or a residue may be inferred. Where a SMILES comes first, the peptide text is derived from it. Bridges are numbered along the chain shown (N, C = ends).

Assays:
[1] = tested on: human aortic endothelial cells (HAEC); test: cGMP response in HAEC in the absence or presence of NPR-B antibody; type: cell-based; conditions: 10^−6 M, 10 minutes
Description: cGMP responses to the 3 peptides also were assessed in glomeruli isolated from canine kidneys upon harvest, in the presence or absence of an NPR-A antagonist, […] (1 μM), or an NPR-B antagonist, […] (1 μM), or both antagonists added sequentially (A71915 followed by […], 1 μM final concentration for both). To confirm the involvement of NPR-B in the cGMP response to CU-NP, additional experiments were conducted using human aortic endothelial cells (HAEC). Cyclic GMP response was determined by incubating CU-NP (10^-6 M) for 10 minutes in the absence or presence of an antibody to the ligand-binding domain of NPR-B. In vitro data (mean±SEM) were analyzed by one-way ANOVA followed by Bonferroni's post-test. Statistical significance was defined as P<0.05. GraphPad Prism 4 (GraphPad Software, San Diego, Calif.) was used for statistical analyses.

[2] = tested on: human aortic endothelial cells (HAEC); test: cGMP production in human aortic endothelial cells (HAEC), 10 minutes incubation; type: cell-based
[3] = tested on: canine heart failure (HF); test: Cardiorenal and neurohumoral actions in canine experimental heart failure (pacing-induced mild HF); type: in vivo, dog; conditions: HF dogs
[4] = 30 minutes of infusion, 75 ng/kg/minute i.v.
[5] = 60 minutes of infusion, 75 ng/kg/minute i.v.

For CC[C@H](C)[C@@H]1NC(=O)[C@H](CCCNC(=N)N)NC(=O)[C@H](CC(=O)O)NC(=O)[C@H](CC(C)C)NC(=O)[C@H](CCCCN)NC(=O)[C@H](CC(C)C)NC(=O)CNC(=O)[C@H](Cc2ccccc2)NC(=O)[C@@H](NC(=O)[C@H](CO)NC(=O)[C@H](CO)NC(=O)[C@H](CCCNC(=N)N)NC(=O)[C@H](CCCNC(=N)N)NC(=O)[C@H](CC(C)C)NC(=O)[C@H](CO)NC(=O)[C@H](CCCNC(=N)N)NC(=O)[C@@H]2CCCN2C(=O)[C@H](C)NC(=O)[C@@H](N)[C@@H](C)O)CSSC[C@@H](C(=O)N[C@@H](CC(N)=O)C(=O)N[C@@H](CO)C(=O)N[C@@H](Cc2ccccc2)C(=O)N[C@@H](CCCNC(=N)N)C(=O)N[C@@H](Cc2ccc(O)cc2)C(=O)O)NC(=O)CNC(=O)[C@H](CC(C)C)NC(=O)CNC(=O)[C@H](CO)NC(=O)[C@H](CCSC)NC(=O)[C@H](CO)NC(=O)CNC1=O [CU-NP] (H-TAPRSLRRSSCFGLKLDRIGSMSGLGCNSFRY-OH; disulfide 11-27), the cGMP ([1]; in the presence of the NPR-B antibody (1:100)) was 0.19 ± 0.02 pmol/mL, the cGMP ([1]; no antibody) was 0.30 ± 0.02 pmol/mL and the “cGMP (mean ± SEM)” value ([2]; 10^−6 M) was 0.571 ± 0.05 pmol/mL. For the same compound, the “cGMP (mean ± SEM)” value ([2]; 10^−8 M) was 0.03 ± 0.02 pmol/mL, the “cGMP (mean ± SEM)” value ([2]; 10^−10 M) was 0.0007 ± 0.0007 pmol/mL and the Aldosterone [3, 4] was 9 ± 2 ng/dL. For the same compound, the “Angiotensin II” value [3, 4] was 9 ± 2 pg/mL, the CO [3, 4] was 2.5 ± 0.1 L/min and the “DFRNa+” value [3, 4] was 96 ± 1 %. The GFR [3, 4] was 51 ± 9 mL/min, the MAP [3, 4] was 100 ± 8 mmHg and the “Na^+ excretion” value [3, 4] was 80.5 ± 29.4 μEq/min. For the same compound, the PAP [3, 4] was 15 ± 0.6 mmHg, the PCWP [3, 4] was 9 ± 1 mmHg and the “PFRNa+” value [3, 4] was 68 ± 5 %. For the same compound, the “Plasma cGMP” value [3, 4] was 41 ± 3 pmol/mL, the Plasma renin activity [3, 4] was 3 ± 1 ng/mL/h and the RBF [3, 4] was 281 ± 42 mL/min. For the same compound, the “Renal generation of cGMP” value [3, 4] was 2977 ± 549 pmol/min, the SVR [3, 4] was 39 ± 3 mmHg · L^−1 · Min and the “Urinary cGMP excretion” value [3, 4] was 5066 ± 826 pmol/min. For the same compound, the Urine flow [3, 4] was 0.50 ± 0.15 mL/min, the Aldosterone [3, 5] was 6 ± 2 ng/dL and the “Angiotensin II” value [3, 5] was 9 ± 3 pg/mL. The CO [3, 5] was 2.4 ± 0.1 L/min, the “DFRNa+” value [3, 5] was 96 ± 1 % and the GFR [3, 5] was 51 ± 3 mL/min. The MAP [3, 5] was 96 ± 8 mmHg, the “Na^+ excretion” value [3, 5] was 102.0 ± 22.2 μEq/min and the PAP [3, 5] was 14 ± 0.7 mmHg. The PCWP [3, 5] was 8 ± 1 mmHg, the “PFRNa+” value [3, 5] was 67 ± 3 % and the “Plasma cGMP” value [3, 5] was 43 ± 2 pmol/mL. For the same compound, the Plasma renin activity [3, 5] was 2 ± 1 ng/mL/h, the RBF [3, 5] was 294 ± 42 mL/min and the “Renal generation of cGMP” value [3, 5] was 3255 ± 662 pmol/min. For the same compound, the SVR [3, 5] was 39 ± 3 mmHg · L^−1 · Min, the “Urinary cGMP excretion” value [3, 5] was 5476 ± 876 pmol/min and the Urine flow [3, 5] was 0.56 ± 0.11 mL/min. The Aldosterone ([3]; post-infusion) was 11 ± 3 ng/dL, the “Angiotensin II” value ([3]; post-infusion) was 19 ± 4 pg/mL and the CO ([3]; post-infusion) was 2.3 ± 0.04 L/min. For the same compound, the “DFRNa+” value ([3]; post-infusion) was 99 ± 0.3%, the GFR ([3]; post-infusion) was 53 ± 7 mL/min and the MAP ([3]; post-infusion) was 107 ± 8 mmHg. The “Na^+ excretion” value ([3]; post-infusion) was 22.1 ± 7.9 μEq/min, the PAP ([3]; post-infusion) was 16 ± 0.7 mmHg and the PCWP ([3]; post-infusion) was 10 ± 1 mmHg. For the same compound, the “PFRNa+” value ([3]; post-infusion) was 79 ± 3 %, the “Plasma cGMP” value ([3]; post-infusion) was 21 ± 2 pmol/mL and the Plasma renin activity ([3]; post-infusion) was 9 ± 2 ng/mL/h. For the same compound, the RBF ([3]; post-infusion) was 275 ± 42 mL/min, the “Renal generation of cGMP” value ([3]; post-infusion) was 1342 ± 200 pmol/min and the SVR ([3]; post-infusion) was 45 ± 3 mmHg · L^−1 · Min. For the same compound, the “Urinary cGMP excretion” value ([3]; post-infusion) was 2394 ± 197 pmol/min, the Urine flow ([3]; post-infusion) was 0.19 ± 0.03 mL/min and the Aldosterone ([3]; pre-infusion) was 14 ± 5 ng/dL. For the same compound, the “Angiotensin II” value ([3]; pre-infusion) was 32 ± 7 pg/mL, the CO ([3]; pre-infusion) was 2.4 ± 0.1 L/min and the “DFRNa+” value ([3]; pre-infusion) was 99.6 ± 0.1%. For the same compound, the GFR ([3]; pre-infusion) was 40 ± 5 mL/min, the MAP ([3]; pre-infusion) was 108 ± 9 mmHg and the “Na^+ excretion” value ([3]; pre-infusion) was 2.9 ± 0.9 μEq/min. The PAP ([3]; pre-infusion) was 16 ± 0.8 mmHg, the PCWP ([3]; pre-infusion) was 11 ± 1 mmHg and the “PFRNa+” value ([3]; pre-infusion) was 89 ± 2%. For the same compound, the “Plasma cGMP” value ([3]; pre-infusion) was 17 ± 3 pmol/mL, the Plasma renin activity ([3]; pre-infusion) was 9 ± 2 ng/mL/h and the RBF ([3]; pre-infusion) was 238 ± 39 mL/min. For the same compound, the “Renal generation of cGMP” value ([3]; pre-infusion) was 610 ± 66 pmol/min, the SVR ([3]; pre-infusion) was 42 ± 3 mmHg · L^−1 · Min and the “Urinary cGMP excretion” value ([3]; pre-infusion) was 1186 ± 152 pmol/min. It also gave a Urine flow ([3]; pre-infusion) of 0.09 ± 0.01 mL/min.
